In the supplement of paper PMC4723716:
± gives the uncertainty stated by the source. In all, about 9,900 compounds were measured (“viability index relative to DMSO control”: median about 1, lowest 2% from about 0.85 on). The list shows a part of the results.

Tested on: Plasmodium falciparum NF54 stage V gametocytes
Assay: viability index relative to DMSO control (fraction); higher = less gametocyte killing
Details: 2.5 µM, library set: Broad Institute DOS, incubation time: 72 h
Outline: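 Compound at 2.5 µM was incubated for 72 hr at 37°C under low oxygen with P. falciparum NF54 stage V gametocytes (0.75% gametocytemia, 1.25% hematocrit, 10 µl, serum-free screening medium) in 1,536-well plates. Staining used 3 µl of 2.5 µM MitoTracker Red CMXRos plus 0.13% saponin for one to two hours, and red particles of 20–70 µm2 were counted in one imaged field per well. Each viability index is that count relative to the plate mean of solvent-only wells.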

Row | Structure (SMILES) | viability index
1 | CO[C@H]1CN(C)C(=O)c2cc(NC(=O)NC(C)C)ccc2OC[C@H](C)N(C(=O)CN(C)C)C[C@H]1C | 1.12 ± 0.014
2 | COc1ccc(-c2ccc3c(c2)[C@@H]2[C@@H](CCN2C(=O)Nc2ccccc2OC)[C@@H](CO)N3C)cc1 | 0.93284 ± 8.2e-05
3 | O=C(c1cccc(F)c1)N1CC2(C1)[C@H](c1ccccc1)[C@@H](CO)N2C(=O)C1CCCCC1 | 1.07 ± 0.08
4 | COc1ccc(CNC(=O)C[C@@H]2C=C[C@@H](NC(=O)c3cccc(F)c3)[C@H](CO)O2)cc1 | 0.871 ± 0.024
5 | C/C=C/c1cccc(-c2nc(C(=O)NCc3cccc(OC)c3)cc3c2[C@@H](CCO)N([S@](=O)C(C)(C)C)C3)c1 | 1.07 ± 0.039
6 | COc1cccc(CNC(=O)C[C@H]2CC[C@@H]3[C@H](COc4ccc(NS(=O)(=O)c5ccccc5F)cc4C(=O)N3C)O2)c1 | 0.957 ± 0.072
7 | COc1ccc2c3c([C@@H](CO)N(CC4CC4)C[C@]33CN(Cc4ccc(F)cc4)C3)n(C)c2c1 | 1.03 ± 0.081
8 | C[C@@H]1CN([C@H](C)CO)C(=O)CCCn2cc(nn2)CO[C@@H]1CN(C)S(=O)(=O)c1cccc(C#N)c1 | 1.02 ± 0.038
9 | O=C(NC1CCCCC1)N1[C@@H]2CNC[C@H]1[C@H]2c1ccc(-c2ccccc2F)cc1 | 1.05 ± 0.035
10 | C[C@@H](NC(=O)C[C@H]1CC[C@H]2[C@@H](COC[C@@H](O)CN2C(=O)Nc2cccc(Cl)c2)O1)c1ccccc1 | 1.06 ± 0.029
11 | Cc1nn(C)cc1NC(=O)C[C@@H]1CC[C@H]2[C@@H](COc3ccc(NC(=O)c4cccc(F)c4)cc3C(=O)N2C)O1 | 1.12 ± 0.093
12 | O=C(Nc1ccccc1)N1CC(=O)N2[C@H](CO)[C@@H](c3ccc(C#CC4CCCCC4)cc3)[C@@H]2C1 | 1.04 ± 0.086
13 | O=C(Nc1cc(F)ccc1F)N1[C@@H]2CNC[C@H]1[C@H]2c1ccc(/C=C/c2ccccc2)cc1 | 1.056 ± 0.0066
14 | Cc1ccccc1-c1ccc2c(c1)O[C@H](CN(C)C(=O)Nc1ccc(C(F)(F)F)cc1)[C@H](C)CN([C@H](C)CO)S2(=O)=O | 0.988 ± 0.082
15 | N#C[C@@H]1[C@H](c2ccccc2-c2ccccc2F)[C@H](CO)N1C(=O)Cc1ccccc1 | 1.09 ± 0.087
16 | Cc1ccc(S(=O)(=O)N2C[C@@H](O)COC[C@H]3O[C@H](CC(=O)NCc4ccc5c(c4)OCO5)CC[C@@H]32)cc1 | 1.01 ± 0.023
17 | C/C=C/c1cccc(-c2nc(C(=O)NC3Cc4ccccc4C3)cc3c2[C@H](CCO)N(C(C)=O)C3)c1 | 0.856 ± 0.066
18 | CO[C@@H]1CN(C)C(=O)c2cc(NC(=O)NC(C)C)ccc2OC[C@H](C)N(C(=O)CN(C)C)C[C@@H]1C | 1.01 ± 0.063
19 | COc1cccc(CN2[C@@H](CO)[C@@H](c3ccccc3)C23CN(C(=O)C2CCCCC2)C3)c1 | 1.09 ± 0.058
20 | CO[C@@H]1CC[C@H]2CCOc3ccc(C#N)cc3C(=O)N(C)C[C@@H](c3ccccc3)CC(=O)N(C)C[C@@H]1O2 | 1.05 ± 0.07
21 | COc1ccc(S(=O)(=O)Nc2ccc3c(c2)C(=O)N([C@H](C)CO)C[C@@H](C)[C@H](CN(C)S(=O)(=O)c2ccc(Cl)cc2)OCCCC[C@@H](C)O3)cc1 | 0.887 ± 0.072
22 | CC(=O)N1CC2(C1)[C@H](c1ccccc1)[C@@H](CO)N2C(=O)Cc1ccccc1 | 1.119 ± 0.0026
23 | O=C(C[C@@H]1C[C@@H]2c3cc(NC(=O)Nc4ccccc4F)ccc3O[C@@H]2[C@@H](CO)O1)NCc1ccccn1 | 0.981 ± 0.041

Row | Structure (SMILES) | viability index
24 | COc1ccc(S(=O)(=O)N(C)C[C@H]2Oc3ccc(N(C)C)cc3CC(=O)N([C@H](C)CO)C[C@H]2C)cc1 | 1.06 ± 0.066
25 | CN(C)C(=O)c1ccc(-c2ccc([C@H]3[C@H](CO)N4C(=O)CN(C(=O)CC5CC5)C[C@@H]34)cc2)cc1 | 0.9587 ± 0.0074
26 | Cc1cccc(S(=O)(=O)N2CC[C@H]3[C@@H](CO)N(C)c4ccc(Br)cc4[C@H]32)c1 | 1.06 ± 0.012
27 | COc1ccccc1NC(=O)N1[C@H](C#N)[C@H](c2ccccc2)[C@@H]1CO | 1.01 ± 0.046
28 | COc1ccc2c3c([C@H](CO)N(Cc4cccc(Cl)c4)C[C@]33CCN(CC3)C(=O)C3CC3)n(C)c2c1 | 1.02 ± 0.057
29 | O=C(c1ccc2c(c1)OCO2)N1CC[C@@H]2[C@H]1c1cc(C#Cc3ccccc3)ccc1N[C@@H]2CO | 1.09 ± 0.036
30 | COCC(=O)N1[C@H](CO)[C@H]2c3ccccc3N(C(=O)Nc3ccccc3Cl)C[C@H]21 | 0.929 ± 0.089
31 | CCCNC(=O)N1C[C@@H]2N[C@H](C1)[C@H]2c1ccc(-c2ccccc2C)cc1 | 1.073 ± 0.0012
32 | CO[C@@H]1CC[C@@H]2CCOc3c(C#N)cccc3C(=O)N(C)C[C@@H](OC)[C@H](C)C(=O)N(C)C[C@@H]1O2 | 1 ± 0.015
33 | COc1ccc(CNC(=O)C[C@H]2CC[C@H](NC(=O)CN(C)C)[C@H](CO)O2)cc1 | 1.14 ± 0.058
34 | CC(C)[C@@H]1COCn2nncc2CC[C@H](C)C(=O)N1 | 0.9721 ± 0.0071
35 | Cc1cccc(S(=O)(=O)N2C[C@H]3[C@@H](c4ccccc42)[C@@H](CO)N3CC2CCCC2)c1 | 1 ± 0.036
36 | CCC(=O)Nc1ccc2c(c1)C(=O)N(C)C[C@@H](OC)[C@@H](C)CN(C(=O)Cc1cccnc1)[C@H](C)CO2 | 1.06 ± 0.022
37 | C[C@H](CO)N1C[C@H](C)[C@H](CN(C)Cc2ccc3cccnc3c2)OCc2cnnn2CCCC1=O | 1.103 ± 0.007
38 | COc1cccc(C(=O)Nc2ccc3c(c2)C(=O)N(C)[C@@H]2CC[C@H](CC(=O)N[C@@H](C)c4ccccc4)O[C@@H]2CO3)c1 | 1.18 ± 0.12
39 | CCC(=O)N1C[C@]2(CCN(CC2)C(=O)Nc2c(C)noc2C)c2c([nH]c3cc(OC)ccc23)[C@@H]1CO | 0.903 ± 0.075
40 | C[C@H]1CN([C@@H](C)CO)C(=O)CCCn2nncc2CO[C@@H]1CN(C)Cc1ccc2c(c1)OCCN2C | 0.974 ± 0.065
41 | CC(C)NC(=O)Nc1ccc2c(c1)C(=O)N([C@H](C)CO)C[C@@H](C)[C@H](CN(C)C(=O)C1CCCCC1)OCCCC[C@@H](C)O2 | 1.08 ± 0.016
42 | CN1C(=O)c2cc(NS(=O)(=O)CC(F)(F)F)ccc2OC[C@H]2O[C@@H](CC(=O)NCC3CCCCC3)CC[C@@H]21 | 1.1 ± 0.038
43 | CN1C(=O)c2cc(NC(=O)c3cscn3)ccc2OC[C@@H]2O[C@@H](CC(=O)NCc3ccc(Cl)c(Cl)c3)CC[C@H]21 | 0.871 ± 0.12
44 | C[C@H](CO)N1C[C@H](C)[C@H](CN(C)C(=O)[C@@H](Cc2ccccc2)N(C)C)OCc2ccccc2-c2ccccc2C1=O | 0.953 ± 0.047
45 | COc1ccc(CNC(=O)C[C@H]2C=C[C@@H](NC(=O)c3cccc(F)c3)[C@H](CO)O2)cc1 | 1.05 ± 0.017
